Each structure is given as a SMILES string. The campaign covered roughly 43,000 compounds. About 200 (0.47%) were called active. Not shown: some 12% with an inconclusive outcome. The call rests on the fitted dose curve; in most records, active means well fitted cell-killing curve with a large enough effect; inconclusive means small, poorly fitted or top-dose-only effect, or effect the other way; inactive means flat fitted curve, though single readings scatter. Some of the results follow.
On the % scale 0 is the no-effect control and ±100 the full control effect.

The experiment is described as follows: Cell viability qHTS assay in S16 Pmp22-F2sN cells. Further: nearly all actives have a fitted effect of over 65% in size. The conditions noted are these: S16 Pmp22-F2sN Schwann cells viability, CellTiter-Glo, 24 h; series mostly up to 57.5 µM; activity change, negative = cytotoxicity: at the top concentration. In a few lines: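 S16 Pmp22-F2sN Schwann cells (500-1,000/well) in phenol-red-free DMEM with 10% FBS received 23 nL compound by pin tool for 24 h at 37 °C. Viability was then read as CellTiter-Glo luminescence after 15 min at room temperature.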
Take `Cc1ccc(C(=O)N2CCc3cc(CNC(=O)CCc4ccccc4)ccc32)cc1`: the “activity change, negative = cytotoxicity” value is inactive: 2.22%.

For the molecule `O=C(NC1CC(=O)N(c2ccccc2)C1)c1ccco1` (stereo not drawn), the “activity change, negative = cytotoxicity” value is inactive: 0.918%.

In the case of `COc1cccc(C(=O)NCCc2csc(-c3cccc(F)c3)n2)c1OC`, the “activity change, negative = cytotoxicity” value is inactive: 7.47%.

For the molecule `CCc1ccc(S(=O)(=O)Nc2cc3c(cc2N2CCOCC2)n(C)c(=O)c(=O)n3C)cc1`, the “activity change, negative = cytotoxicity” value was inactive: 9.23%.

As for `CCOc1ccc(NC(=O)C(=O)NCCc2ccccc2)cc1`, the “activity change, negative = cytotoxicity” value was inactive: 9.69%.

Take `O=c1c(N2CCCCC2)csc2ccc(F)cc12`: the “activity change, negative = cytotoxicity” value is inactive: 3.96%.

Take `COc1ccc(-c2nc3ccccc3s2)cc1NC(=O)COc1cccc(C)c1`: the “activity change, negative = cytotoxicity” value was inactive: 5.52%.

Take `CCc1nc2ccc(C(=O)NCc3cccc(Br)c3)cc2nc1CC`: the “activity change, negative = cytotoxicity” value is inactive: 1.76%.

As for `COCCCNC(=O)c1nn(-c2ccc(C)cc2)c(=O)n(C)c1=O`, the “activity change, negative = cytotoxicity” value was inactive: -0.32%.

Take `O=C(c1cnc(N2CCCCC2)c2ccccc12)N1CCN(c2cccc(Cl)c2)CC1`: the “activity change, negative = cytotoxicity” value was inactive: 1.45%.

For `Cc1cc(C)cc(NC(=O)CCCn2c(=O)c3cccn3c3ccccc32)c1`, the “activity change, negative = cytotoxicity” value was inactive: 15.6%.

On to `O=C(Cn1c(=O)n(CCCS(=O)(=O)C2CCCCC2)c(=O)c2ccccc21)Nc1ccc(F)c(Cl)c1`, for which the “activity change, negative = cytotoxicity” value was inactive: 0.705%.

As to `COc1ccc(C)cc1NC(=O)N1CCN(c2nnc(C)c3c(C)n(-c4ccccc4)nc23)CC1`, the “activity change, negative = cytotoxicity” value was inactive: 3.35%.

Consider `Cc1ccc(OCC(=O)Nc2sc3c(c2C(N)=O)CCCC3)c(C(C)(C)C)c1`, for which the “activity change, negative = cytotoxicity” value was inactive: 11.4%.

On to `COCCNC(=O)c1ccc(-c2nc(CN3CCc4ccccc43)c(C)o2)cc1`, for which the “activity change, negative = cytotoxicity” value is inactive: 16.7%.

Regarding `Cc1cccc(NC(=O)c2cc3c(=O)n4ccccc4nc3n2C)c1C`, the “activity change, negative = cytotoxicity” value is inactive: -7.49%.

On to `CCCCNC(=O)Cn1cnc2sc(C)c(S(=O)(=O)N3CCN(c4ccccc4OC)CC3)c2c1=O`, for which the “activity change, negative = cytotoxicity” value was inactive: 7.22%.

`Cc1csc2nc(COC(=O)c3ccc(NC(=O)C(C)C)cc3)cc(=O)n12`: the “activity change, negative = cytotoxicity” value is inactive: -23.4%.

Regarding `COc1ccccc1NC(=O)c1ncoc1-c1ccco1`, the “activity change, negative = cytotoxicity” value is inactive: -11.7%.

For `CC(C)OCCCNC(=O)CN1C(=O)COc2ccc(S(=O)(=O)N3CCOCC3)cc21`, the “activity change, negative = cytotoxicity” value is inactive: 3.01%.

In the case of `Cc1ccc(-n2c(SCC(=O)Nc3ccc4c(c3)OCCO4)nc3c([nH]c4ccccc43)c2=O)cc1`, the “activity change, negative = cytotoxicity” value was inactive: -4.41%.

On to `Cc1cccc(NS(=O)(=O)c2nnc(NC(=O)c3cccc(C)c3)s2)c1`, for which the “activity change, negative = cytotoxicity” value is inactive: 3.18%.

Regarding `COC(=O)c1ccccc1NC(=O)CSc1nc2nc(C)cc(C)n2n1`, the “activity change, negative = cytotoxicity” value was inactive: 2.41%.

With `Cc1ccc(C(=O)Nc2ccc(Br)cc2)cc1S(=O)(=O)NCc1ccccc1`, the “activity change, negative = cytotoxicity” value is inactive: -12.8%.

For the molecule `CCOc1ccccc1C(=O)N(Cc1ccco1)Cc1ccccc1F`, the “activity change, negative = cytotoxicity” value was inactive: -4.32%.

`COC(=O)CN1C(C(=O)c2ccccc2)=C(OC(=O)c2ccc(C)cc2)c2ccccc2S1(=O)=O`: the “activity change, negative = cytotoxicity” value is inactive: 1.22%.

On to `Clc1cccc(CSc2ccc(-c3cccs3)nn2)c1`, for which the “activity change, negative = cytotoxicity” value was inactive: -24.6%.

For the molecule `O=C(c1cccn1-c1nnc(N2CCCCC2)s1)N1CCN(c2ccccc2)CC1`, the “activity change, negative = cytotoxicity” value is inactive: 0.71%.

The values are drawn from PubChem BioAssay AID1508642 (National Center for Advancing Translational Sciences (NCATS), 2021).
